Test results from the antibiotic and cytotoxicity screens of Wong et al. (2023).
The list shows a part of the results.

Legend:
HSkMC = human skeletal muscle cells; test: cytotoxicity call (relative viability < 0.9); settings: 10 µM
S. aureus RN4220 = test: growth inhibition call (relative growth <= 0.2); settings: 50 µM

SMILES	cytotoxicity call (HSkMC)	growth inhibition call (S. aureus RN4220)
C=CC(=O)Nc1ccccc1[C@@H](CCc1ccc(OC)c(OC)c1)OC(=O)[C@@H]1CCCCN1C(=O)C(=O)C(C)(C)CC	inactive	inactive
C[C@@H]1CN([C@H](C)CO)C(=O)c2cc(NC(=O)Nc3ccccc3)ccc2O[C@@H]1CN(C)CC1CCCCC1	inactive	inactive
CN1C(=O)c2cc(NC(=O)c3cccs3)ccc2OC[C@@H]2O[C@H](CC(=O)NCC(F)(F)F)CC[C@@H]21	inactive	inactive
C[C@H]1CCCCO[C@@H](CN(C)C(=O)Nc2ccc3c(c2)OCO3)[C@@H](C)CN([C@@H](C)CO)C(=O)c2cc(NC(=O)Nc3ccc(F)cc3)ccc2O1	inactive	inactive
Nc1ccccc1S(N)(=O)=O	inactive	inactive
COc1cc2nc(N3CCCN(Cc4ccccc4)CC3)nc(Nc3ccc(F)c(Cl)c3)c2cc1OC	active	inactive
CO[C@H]1CN(C)C(=O)c2ccc(NS(=O)(=O)CC(F)(F)F)cc2OC[C@H](C)N(C(=O)c2ccc3c(c2)OCO3)C[C@H]1C	inactive	inactive
Cc1ccc(S(=O)(=O)N(C)C[C@H]2OCCCC[C@H](C)Oc3ccc(NC(=O)NC4CCCCC4)cc3C(=O)N([C@H](C)CO)C[C@H]2C)cc1	inactive	inactive
CO[C@@H]1CN(C)C(=O)c2cc(NC(C)=O)ccc2OC[C@@H](C)N(S(=O)(=O)c2cn(C)cn2)C[C@H]1C	inactive	inactive
CC1(C)[C@@H](O[C@H]2O[C@H](C(=O)O)[C@@H](O)[C@H](O)[C@H]2O[C@@H]2O[C@H](C(=O)O)[C@@H](O)[C@H](O)[C@H]2O)CC[C@]2(C)[C@H]3C(=O)C=C4[C@@H]5C[C@@](C)(C(=O)O)CC[C@]5(C)CC[C@@]4(C)[C@]3(C)CC[C@@H]12	inactive	inactive
CC(C)NC(=O)Nc1ccc2c(c1)C(=O)N([C@H](C)CO)C[C@H](C)[C@H](CN(C)C(=O)Nc1ccc(C(F)(F)F)cc1)OCCCC[C@H](C)O2	inactive	inactive
C[C@H](CO)N1C[C@H](C)[C@H](CN(C)Cc2ccc(C(F)(F)F)cc2)Oc2ccc(NC(=O)CCC(F)(F)F)cc2CC1=O	inactive	inactive
C[C@@H]1CN([C@H](C)CO)C(=O)c2cc(NC(=O)Nc3ccccc3)ccc2O[C@@H](C)CCCCO[C@@H]1CN(C)Cc1ccc2c(c1)OCO2	inactive	inactive
Cc1noc(C)c1NC(=O)Nc1ccc2c(c1)C(=O)N([C@H](C)CO)C[C@H](C)[C@H](CN(C)C(=O)C1CCCCC1)OCCCC[C@H](C)O2	inactive	inactive
CC(C)CC#Cc1cnc2c(c1)C(=O)N([C@@H](C)CO)C[C@@H](C)[C@@H](CN(C)C(=O)c1ccc3c(c1)OCO3)O2	inactive	inactive
C[C@H](CO)N1C[C@H](C)[C@H](CN(C)S(=O)(=O)c2ccc(F)cc2)Oc2ncc(Br)cc2C1=O	inactive	inactive
Cc1ccc(S(=O)(=O)N(C)C[C@@H]2OCCCC[C@@H](C)Oc3ccc(NC(=O)c4ccccc4)cc3C(=O)N([C@@H](C)CO)C[C@H]2C)cc1	inactive	inactive
CO[C@H]1CN(C)C(=O)c2cc(NC(=O)C3CC3)ccc2OC[C@H](C)N(C(=O)CN2CCOCC2)C[C@@H]1C	inactive	inactive
C[C@@H]1CCCCO[C@@H](CN(C)S(=O)(=O)c2ccccc2)[C@@H](C)CN([C@@H](C)CO)C(=O)c2cc(NS(=O)(=O)c3cn(C)cn3)ccc2O1	inactive	inactive
COc1cccc(-c2cccc(-c3nc(C(=O)NCC(F)(F)F)cc4c3[C@@H](CCO)N([S@](=O)C(C)(C)C)C4)c2)c1	inactive	inactive
C[C@@H]1CN([C@H](C)CO)C(=O)c2cc(NC(=O)Nc3ccc4c(c3)OCO4)ccc2O[C@@H]1CN(C)S(C)(=O)=O	inactive	inactive
C[C@@H]1CCCCO[C@@H](CN(C)S(=O)(=O)c2ccccc2)[C@H](C)CN([C@H](C)CO)C(=O)c2cc(NC(=O)CCC(F)(F)F)ccc2O1	inactive	inactive
COC(=O)CNC(=O)c1ccc(F)cc1	inactive	inactive
COc1ccc(NC(=O)N(C)C[C@@H]2Oc3ccc(NC(=O)CCN4CCOCC4)cc3C(=O)N([C@@H](C)CO)C[C@@H]2C)cc1	inactive	inactive
O=C(O)c1ccc(O)c(O)c1	inactive	inactive
C[C@@H]1CCCCO[C@H](CN(C)Cc2ccc3c(c2)OCO3)[C@H](C)CN([C@@H](C)CO)C(=O)c2cc(NC(=O)Nc3ccccc3)ccc2O1	inactive	inactive
